Results from PMC4336329 (PLoS ONE, 2015).
Out of some 310,000 compounds screened, about 14,000 (4.5%) showed an effect of 50% or more. The effect is printed as a negative number. This is one part of the list.

target: human ether-à-go-go-related gene (hERG) potassium channel (human, UniProt Q12809); assay: primary screen, population patch clamp on CHO cells stably expressing hERG
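Also: peak tail current of the secondary pulse compared with the same well before compound.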

Sequence of human ether-à-go-go-related gene (hERG) potassium channel (Q12809 whole entry, looked up): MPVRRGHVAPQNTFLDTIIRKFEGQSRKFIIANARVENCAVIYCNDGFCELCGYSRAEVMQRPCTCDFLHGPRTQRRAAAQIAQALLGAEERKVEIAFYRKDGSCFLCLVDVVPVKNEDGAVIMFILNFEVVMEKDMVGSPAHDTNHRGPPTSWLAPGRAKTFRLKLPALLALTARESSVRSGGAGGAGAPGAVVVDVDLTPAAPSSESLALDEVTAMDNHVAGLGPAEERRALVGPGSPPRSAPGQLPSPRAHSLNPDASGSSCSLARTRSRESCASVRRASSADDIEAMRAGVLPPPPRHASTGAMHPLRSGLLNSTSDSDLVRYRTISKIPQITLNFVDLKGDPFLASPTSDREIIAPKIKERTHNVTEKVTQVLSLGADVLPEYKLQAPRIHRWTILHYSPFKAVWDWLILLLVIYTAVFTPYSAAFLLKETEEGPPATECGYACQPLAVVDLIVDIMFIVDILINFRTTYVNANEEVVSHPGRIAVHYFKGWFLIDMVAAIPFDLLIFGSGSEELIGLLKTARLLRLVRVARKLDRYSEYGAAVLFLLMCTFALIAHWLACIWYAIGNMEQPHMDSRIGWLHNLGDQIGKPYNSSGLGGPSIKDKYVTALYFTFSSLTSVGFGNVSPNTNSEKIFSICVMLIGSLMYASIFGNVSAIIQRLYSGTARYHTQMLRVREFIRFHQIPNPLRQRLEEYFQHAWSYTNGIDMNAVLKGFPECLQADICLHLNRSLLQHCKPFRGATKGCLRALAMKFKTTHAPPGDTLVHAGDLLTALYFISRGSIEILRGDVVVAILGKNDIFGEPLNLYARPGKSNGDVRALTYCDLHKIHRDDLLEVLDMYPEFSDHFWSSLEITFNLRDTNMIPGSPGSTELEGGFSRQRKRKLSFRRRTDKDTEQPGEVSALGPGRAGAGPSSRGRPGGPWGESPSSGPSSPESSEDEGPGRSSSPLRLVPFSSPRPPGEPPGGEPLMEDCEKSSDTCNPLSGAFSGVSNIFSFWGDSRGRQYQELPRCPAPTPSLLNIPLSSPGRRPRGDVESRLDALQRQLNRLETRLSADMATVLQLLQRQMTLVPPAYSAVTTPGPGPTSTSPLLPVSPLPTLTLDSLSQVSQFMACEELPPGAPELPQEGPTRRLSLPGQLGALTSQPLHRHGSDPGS

| SMILES | hERG current change (%, negative = inhibition) at 10uM |
| --- | --- |
| Cc1ccc(S(=O)(=O)N/N=C\c2ccc3c(c2)OCO3)cc1 | 19.5% |
| Nc1cc(C(F)(F)F)cc2c1SCC(=O)N2 | 22.5% |
| CCOC(=O)c1cc(CC)sc1NC(=O)c1cccc(N2C(=O)CCC2=O)c1 | -25.6% |
| C=CCn1c(CSCc2ccc(Cl)cc2Cl)nnc1SCC(=O)Nc1ccc(C(=O)O)cc1 | 6.02% |
| Nc1ccccc1Oc1ccc2ccccc2c1 | -7.4% |
| COc1ccc(S(=O)(=O)c2cnc3ccc(OC)cc3c2N2CCC3(CC2)OCCO3)cc1 | -28.5% |
| Cc1cc(C)n2nc(C(=O)OCC(=O)NNC(=O)c3ccccc3)nc2n1 | 1.34% |
| CC1CCN(S(=O)(=O)N2CCC(C(=O)NCc3cccnc3)CC2)CC1 | -26.2% |
| CC1CCCC(NC(=O)COC(=O)Cc2ccccc2)C1C (stereo not shown) | -5.31% |
| CCN1CCN(c2nc(Nc3cccc(C)c3)nc(N)c2[N+](=O)[O-])CC1 | -70.2% |
| COc1cccc(C(=O)NC2(C(F)(F)F)N=C3SCCN3C2=O)c1 (stereo not shown) | 15.3% |
| Cc1ccc(-c2nnn(CC(=O)NCC3COCCO3)n2)o1 (stereo not shown) | 13% |
| COc1ccc(/C=N/NC(=O)c2cc[n+]([O-])cc2)cc1O | 5.39% |
| O=C(OCC(=O)N(C1CCCCC1)C1CCCCC1)c1ccc(O)cc1 | 18.6% |
| COc1cccc(OC)c1C(=O)NC(=O)Nc1c(F)c(F)c(F)c(F)c1F | 10.1% |
| O=C(O)CN1C(=O)Nc2ccc(Br)cc2C1c1ccccc1 (stereo not shown) | -3.51% |
| COc1ccccc1NC(=O)c1nn(-c2ccc(Cl)cc2)ccc1=O | 0.277% |
| COC12NC(=O)N(C)C1(OC)C(=O)N(C)C(=O)N2C (stereo not shown) | 8.11% |
| Cc1cccc(C(=O)Nc2sc3c(c2C#N)CCCCC3)c1 | 16.5% |
| Cc1ccc(NC(=O)CC(NC(=O)c2ccccc2Cl)c2ccccc2)nc1 (stereo not shown) | 5.3% |
| CC(Oc1ccc(F)cc1)C(=O)Nc1ccc2ccccc2c1 (stereo not shown) | 13.1% |
| NC(=O)Cc1nc2scc(-c3ccccc3)c2c(=O)[nH]1 | 37.9% |
| O=C(Nc1ccc2c(c1)OCO2)c1ccc(N2C(=O)c3ccccc3C2=O)cc1 | -5.61% |
| O=C(Cn1nc(-c2ccc3c(c2)OCCO3)ccc1=O)Nc1ccc(N2CCOCC2)cc1 | 5.41% |
| CCN(CC)C(=O)CSc1nnc(-n2nc(C)cc2C)c2ccccc12 | -6.11% |
